The other results are listed elsewhere or left out.
Columns and labels:
Assay in all cases: glycan array binding signal (z-score within array); higher = stronger binding
Conditions in all cases: glycan notation: IUPAC condensed, linker removed
Fuc(a1-2)Gal = biological target: Fuc(a1-2)Gal
How it was run: (§1)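 The binding signal is a Z-score computed within each array. Data were drawn from 3228 arrays in the Consortium for Functional Glycomics database, restricted to those with a known protein sequence. Scores were averaged over arrays of the same protein sequence at different concentrations or buffers, and over linkers, and negative values can be taken as non-binding.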

Fuc(a1-2)Gal(b1-3)GalNAc = biological target: Fuc(a1-2)Gal(b1-3)GalNAc
How it was run: as §1

[1] = biological target: Fuc(a1-2)Gal(b1-3)GalNAc(b1-3)Gal
How it was run: as §1

[2] = biological target: Fuc(a1-2)Gal(b1-3)GalNAc(b1-3)Gal(a1-4)Gal(b1-4)Glc
How it was run: as §1

[3] = biological target: Fuc(a1-2)Gal(b1-3)GalNAc(b1-4)[Neu5Ac(a2-3)]Gal(b1-4)Glc
How it was run: as §1

Fuc(a1-2)Gal(b1-3)GlcNAc = biological target: Fuc(a1-2)Gal(b1-3)GlcNAc
How it was run: as §1

[4] = biological target: Fuc(a1-2)Gal(b1-3)GlcNAc(b1-3)Gal(b1-4)Glc
How it was run: as §1

[5] = biological target: Fuc(a1-2)Gal(b1-3)[Fuc(a1-4)]GlcNAc
How it was run: as §1

Fuc(a1-2)Gal(b1-4)Glc = biological target: Fuc(a1-2)Gal(b1-4)Glc
How it was run: as §1

Fuc(a1-2)Gal(b1-4)GlcNAc = biological target: Fuc(a1-2)Gal(b1-4)GlcNAc
How it was run: as §1

[6] = biological target: Fuc(a1-2)Gal(b1-4)GlcNAc(b1-3)Gal(b1-4)GlcNAc
How it was run: as §1

[7] = biological target: Fuc(a1-2)Gal(b1-4)GlcNAc(b1-3)Gal(b1-4)GlcNAc(b1-3)Gal(b1-4)GlcNAc
How it was run: as §1

[8] = biological target: Fuc(a1-2)Gal(b1-4)[Fuc(a1-3)]GlcNAc
How it was run: as §1

[9] = biological target: Fuc(a1-2)Gal(b1-4)[Fuc(a1-3)]GlcNAc(b1-3)Gal(b1-4)[Fuc(a1-3)]GlcNAc
How it was run: as §1

[10] = biological target: Fuc(a1-2)Gal(b1-4)[Fuc(a1-3)]GlcNAc(b1-3)Gal(b1-4)[Fuc(a1-3)]GlcNAc(b1-3)Gal(b1-4)[Fuc(a1-3)]GlcNAc
How it was run: as §1

Fuc(a1-2)GlcNAc = biological target: Fuc(a1-2)GlcNAc
How it was run: as §1

Fuc(a1-2)[Gal(a1-3)]Gal = biological target: Fuc(a1-2)[Gal(a1-3)]Gal
How it was run: as §1

[11] = biological target: Fuc(a1-2)[Gal(a1-3)]Gal(b1-3)GlcNAc
How it was run: as §1

[12] = biological target: Fuc(a1-2)[Gal(a1-3)]Gal(b1-4)Glc
How it was run: as §1

[13] = biological target: Fuc(a1-2)[Gal(a1-3)]Gal(b1-4)GlcNAc
How it was run: as §1

[14] = biological target: Fuc(a1-2)[Gal(a1-3)]Gal(b1-4)[Fuc(a1-3)]GlcNAc
How it was run: as §1

[15] = biological target: Fuc(a1-2)[Gal(a1-4)]Gal(b1-4)GlcNAc
How it was run: as §1

[16] = biological target: Fuc(a1-2)[GalNAc(a1-3)]Gal
How it was run: as §1

[17] = biological target: Fuc(a1-2)[GalNAc(a1-3)]Gal(b1-3)GlcNAc
How it was run: as §1

[18] = biological target: Fuc(a1-2)[GalNAc(a1-3)]Gal(b1-4)Glc
How it was run: as §1

[19] = biological target: Fuc(a1-2)[GalNAc(a1-3)]Gal(b1-4)GlcNAc
How it was run: as §1

[20] = biological target: Fuc(a1-2)[GalNAc(a1-3)]Gal(b1-4)[Fuc(a1-3)]GlcNAc
How it was run: as §1

[21] = biological target: Fuc(a1-2)[GalNAc(a1-4)]Gal(b1-4)GlcNAc
How it was run: as §1

[22] = biological target: Fuc(a1-2)[GalNAc(b1-3)]Gal
How it was run: as §1

Fuc(a1-3)GlcNAc = biological target: Fuc(a1-3)GlcNAc
How it was run: as §1

[23] = biological target: Fuc(a1-3)[Gal(b1-4)]GlcNAc
How it was run: as §1

[24] = biological target: Fuc(a1-3)[Gal(b1-4)]GlcNAc(b1-4)Gal(b1-4)[Fuc(a1-3)]GlcNAc
How it was run: as §1

[25] = biological target: Fuc(a1-3)[Gal(b1-4)]GlcNAc(b1-4)Gal(b1-4)[Fuc(a1-3)]GlcNAc(b1-4)Gal(b1-4)[Fuc(a1-3)]GlcNAc
How it was run: as §1

[26] = biological target: Fuc(a1-3)[Gal3S(b1-4)]GlcNAc
How it was run: as §1

[27] = biological target: Fuc(a1-3)[GalNAc(b1-4)]GlcNAc
How it was run: as §1

Fuc(a1-4)GlcNAc = biological target: Fuc(a1-4)GlcNAc
How it was run: as §1

Fuc(b1-3)GlcNAc = biological target: Fuc(b1-3)GlcNAc
How it was run: as §1

Gal(a1-2)Gal = biological target: Gal(a1-2)Gal
How it was run: as §1

Gal(a1-3)Gal = biological target: Gal(a1-3)Gal
How it was run: as §1

Gal(a1-3)Gal(b1-3)GlcNAc = biological target: Gal(a1-3)Gal(b1-3)GlcNAc
How it was run: as §1

Gal(a1-3)Gal(b1-4)Glc = biological target: Gal(a1-3)Gal(b1-4)Glc
How it was run: as §1

Gal(a1-3)Gal(b1-4)GlcNAc = biological target: Gal(a1-3)Gal(b1-4)GlcNAc
How it was run: as §1

[28] = biological target: Gal(a1-3)Gal(b1-4)[Fuc(a1-3)]GlcNAc
How it was run: as §1

Gal(a1-3)GalNAc = biological target: Gal(a1-3)GalNAc
How it was run: as §1

[29] = biological target: Gal(a1-3)[Gal(a1-4)]Gal(b1-4)GlcNAc
How it was run: as §1

B1: DCAL1 (Homo sapiens), Q8IZS7 (protein)
chain: MVSNFFHVIQVFEKSATLISKTEHIGFVIYSWRKSTTHLGSRRKFAISIYLSEVSLQKYDCPFSGTSFVVFSLFLICAMAGDVVYADIKTVRTSPLELAFPLQRSVSFNFSTVHKSCPAKDWKVHKGKCYWIAETKKSWNKSQNDCAINNSYLMVIQDITAMVRFNI
- glycan array binding signal (z-score) (Fuc(a1-2)Gal): -0.222
- glycan array binding signal (z-score) (Fuc(a1-2)Gal(b1-3)GalNAc): -0.207
- glycan array binding signal (z-score) [1]: -0.131
- glycan array binding signal (z-score) [2]: -0.16
- glycan array binding signal (z-score) [3]: -0.124
- glycan array binding signal (z-score) (Fuc(a1-2)Gal(b1-3)GlcNAc): -0.196
- glycan array binding signal (z-score) [4]: -0.137
- glycan array binding signal (z-score) [5]: -0.258
- glycan array binding signal (z-score) (Fuc(a1-2)Gal(b1-4)Glc): -0.259
- glycan array binding signal (z-score) (Fuc(a1-2)Gal(b1-4)GlcNAc): -0.108
- glycan array binding signal (z-score) [6]: -0.039
- glycan array binding signal (z-score) [7]: -0.202
- glycan array binding signal (z-score) [8]: -0.209
- glycan array binding signal (z-score) [9]: -0.199
- glycan array binding signal (z-score) [10]: -0.148
- glycan array binding signal (z-score) (Fuc(a1-2)GlcNAc): -0.188
- glycan array binding signal (z-score) (Fuc(a1-2)[Gal(a1-3)]Gal): -0.115
- glycan array binding signal (z-score) [11]: -0.151
- glycan array binding signal (z-score) [12]: -0.234
- glycan array binding signal (z-score) [13]: -0.172
- glycan array binding signal (z-score) [14]: -0.216
- glycan array binding signal (z-score) [15]: -0.254
- glycan array binding signal (z-score) [16]: -0.2
- glycan array binding signal (z-score) [17]: -0.174
- glycan array binding signal (z-score) [18]: -0.191
- glycan array binding signal (z-score) [19]: -0.203
- glycan array binding signal (z-score) [20]: -0.107
- glycan array binding signal (z-score) [21]: -0.139
- glycan array binding signal (z-score) [22]: -0.13
- glycan array binding signal (z-score) (Fuc(a1-3)GlcNAc): -0.23
- glycan array binding signal (z-score) [23]: -0.107
- glycan array binding signal (z-score) [24]: -0.069
- glycan array binding signal (z-score) [25]: -0.214
- glycan array binding signal (z-score) [26]: -0.246
- glycan array binding signal (z-score) [27]: -0.168
- glycan array binding signal (z-score) (Fuc(a1-4)GlcNAc): -0.271
- glycan array binding signal (z-score) (Fuc(b1-3)GlcNAc): -0.293
- glycan array binding signal (z-score) (Gal(a1-2)Gal): -0.273
- glycan array binding signal (z-score) (Gal(a1-3)Gal): -0.2
- glycan array binding signal (z-score) (Gal(a1-3)Gal(b1-3)GlcNAc): -0.109
- glycan array binding signal (z-score) (Gal(a1-3)Gal(b1-4)Glc): 0.001
- glycan array binding signal (z-score) (Gal(a1-3)Gal(b1-4)GlcNAc): -0.169
- glycan array binding signal (z-score) [28]: -0.072
- glycan array binding signal (z-score) (Gal(a1-3)GalNAc): -0.214
- glycan array binding signal (z-score) [29]: -0.226

Reference: the supplement of paper PMC8728848
